Measurements taken from PubChem BioAssay AID2676 (National Center for Advancing Translational Sciences (NCATS), 2010).
In all, about 370,000 compounds went through this assay and about 1,100 (0.3%) were called active. Inconclusive means that the source gave no clear call. Such entries were picked first, then a sample of the others. The call rests on the fitted dose curve; in most records, active means well fitted activation curve with a large enough effect; inconclusive means small, poorly fitted or top-dose-only effect; inactive means flat fitted curve, though single readings scatter. A potency beside an inconclusive call is a rough fit, not a confirmed value.

biological target: Relaxin receptor 1 (Homo sapiens) (UniProt Q9HBX9); assay: qHTS Assay for Agonists of the Relaxin Receptor RXFP1; settings: HEK293T-RXFP1 cAMP TR-FRET, 30 min; series mostly up to 57.5 µM; further: nearly all actives have a fitted effect of over 60% in size
Sequence of UniProt Q9HBX9 (Q9HBX9 whole entry, looked up): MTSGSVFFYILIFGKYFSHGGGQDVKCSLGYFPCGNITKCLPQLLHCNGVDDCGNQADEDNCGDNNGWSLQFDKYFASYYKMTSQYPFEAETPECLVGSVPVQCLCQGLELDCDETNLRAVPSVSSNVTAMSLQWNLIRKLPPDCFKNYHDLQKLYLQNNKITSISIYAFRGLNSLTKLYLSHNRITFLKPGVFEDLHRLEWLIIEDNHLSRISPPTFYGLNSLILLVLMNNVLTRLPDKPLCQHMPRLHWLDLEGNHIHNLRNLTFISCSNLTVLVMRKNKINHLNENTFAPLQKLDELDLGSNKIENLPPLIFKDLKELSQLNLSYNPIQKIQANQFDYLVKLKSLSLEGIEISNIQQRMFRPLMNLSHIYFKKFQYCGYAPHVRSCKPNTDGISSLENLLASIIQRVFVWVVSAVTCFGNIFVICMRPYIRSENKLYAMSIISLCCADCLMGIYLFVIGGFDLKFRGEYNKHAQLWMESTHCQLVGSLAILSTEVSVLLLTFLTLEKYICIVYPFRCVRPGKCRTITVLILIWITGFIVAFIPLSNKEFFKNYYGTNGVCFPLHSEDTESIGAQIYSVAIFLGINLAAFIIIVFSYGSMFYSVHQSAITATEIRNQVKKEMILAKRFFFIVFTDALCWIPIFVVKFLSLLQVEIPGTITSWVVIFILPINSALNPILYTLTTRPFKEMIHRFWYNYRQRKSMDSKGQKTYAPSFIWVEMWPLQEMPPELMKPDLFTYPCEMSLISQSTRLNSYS
Summary of the method: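 HEK293T cells stably expressing RXFP1 were pretreated with the PDE4 inhibitor Ro 20174, exposed to compounds for 30 min at 37C, lysed, and cAMP was read by TR-FRET. Data normalized to buffer (basal) and 29 nM porcine relaxin (100%).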
Potency means the concentration at half of the fitted maximal effect; tags describe the fitted curve by direction and shape.

**Q.** `Cc1cc(=O)n2nc(N3CCC(C(=O)Nc4c(C)cccc4C)CC3)sc2n1` was tested. Which Potency did it give?
**A.** The Potency was inconclusive: 15.8 µM [activator, partial curve].

**Q.** For `O=S(=O)([N-]c1nc2ccccc2nc1-n1cc[n+](Cc2ccccc2)c1)c1ccc(Br)cc1`, which Potency is on record?
**A.** Its Potency is inconclusive: 39.8 µM [activator, single point].

**Q.** `N#CCCN1CCN(C(=S)c2ccc(-c3cccc(Cl)c3)o2)CC1` was tested. Which Potency did it give?
**A.** Its Potency is “inactive”.

**Q.** For `CCn1c(=O)c(-c2nc3ccccc3[nH]2)c(O)c2ccccc21`, which Potency is on record?
**A.** The Potency was inconclusive: 39.8 µM [activator, single point].

**Q.** For `Cc1c(C(=O)NCc2cccs2)oc2ccccc12`, which Potency is on record?
**A.** Its Potency is “inactive”.

**Q.** How did the Potency turn out when `Cc1ccc(-c2nc3ccc(C(=O)O)cc3nc2-c2ccc(C)cc2)cc1` was run?
**A.** The Potency was “inactive”.

**Q.** For `CC1(C)Cc2c(sc3c2c2ncnn2c2nnc(SCC(=O)NCc4ccco4)n32)CO1`, which Potency is on record?
**A.** The Potency was inconclusive: 3.98 µM [activator, full curve].

**Q.** Which Potency does the source give for `COc1ccc(OC)c(CNC(=O)c2ccc3nc(C(C)C)oc3c2)c1` here?
**A.** Its Potency is “inactive”.

**Q.** `COc1cc(OC)c(NC(=O)c2c(N3CCCC3=O)c3cc(C)ccc3n2C)cc1Cl` was tested. Which Potency did it give?
**A.** Its Potency is inconclusive: 35.5 µM [activator, single point].

**Q.** How did the Potency turn out when `CCN(C(=O)Cn1nnc2sc3c(c2c1=O)CCC(C(C)(C)C)C3)c1cccc(C)c1` (configuration not stated) was run?
**A.** The Potency was “inactive”.

**Q.** With `CC(=O)NS(=O)(=O)c1ccc(N=c2ssc3c2-c2cc(C)c(C)cc2NC3(C)C)cc1` as the compound, how does the Potency read?
**A.** The Potency was “inactive”.

**Q.** `COCc1cc(C)nc(SCC(=O)Nc2ccc3c(c2)n(C)c(=O)n3C)c1C#N` was tested. Which Potency did it give?
**A.** The Potency was inconclusive: 31.6 µM [activator, single point].

**Q.** Which Potency does the source give for `Cc1ccc(C#N)c(SCC(=O)Nc2nccs2)n1` here?
**A.** Its Potency is inconclusive: 39.8 µM [activator, single point].

**Q.** For `CCOc1cc2[nH]c(=S)n(Cc3ccc(C(=O)NCCCOC)cc3)c(=O)c2cc1OCC`, which Potency is on record?
**A.** Its Potency is inconclusive: 39.8 µM [activator, single point].

**Q.** How did the Potency turn out when `Cc1ccc(Cn2c(=N)c(S(=O)(=O)c3ccc(Br)cc3)cc3c(=O)n4ccccc4nc32)cc1` was run?
**A.** The Potency was inconclusive: 39.8 µM [activator, single point].

**Q.** How did the Potency turn out when `COc1ccc(-c2cc3ccc(O)cc3oc2=O)cc1` was run?
**A.** Its Potency is inconclusive: 31.6 µM [activator, partial curve].

**Q.** `CCOC(=O)C1CCN(C(=O)CCc2nnc3ccc(NCc4ccco4)nn23)CC1` was tested. Which Potency did it give?
**A.** The Potency was inconclusive: 28.2 µM [activator, partial curve].

**Q.** With `COc1ccc(Cc2nnc(NC(=O)c3ccc(OC)c(OC)c3)s2)cc1OC` as the compound, how does the Potency read?
**A.** The Potency was inconclusive: 28.2 µM [activator, single point].

**Q.** `N#Cc1cnn2c(N)c(-c3ccc(Cl)cc3)cnc12` was tested. Which Potency did it give?
**A.** Its Potency is inconclusive: 35.5 µM [activator, single point].

**Q.** How did the Potency turn out when `Cc1ccc(-c2nc(NC(=O)CSc3cc(C)c4ccccc4n3)ns2)cc1` was run?
**A.** The Potency was inconclusive: 35.5 µM [activator, single point].

**Q.** Which Potency does the source give for `COc1cc(C(=O)Nc2nc3ccc(S(C)(=O)=O)cc3s2)cc(OC)c1C` here?
**A.** Its Potency is inconclusive: 28.2 µM [activator, single point].

**Q.** `N#Cc1c(-c2cccc(F)c2)cc(-c2ccccc2)nc1Br` was tested. Which Potency did it give?
**A.** The Potency was inconclusive: 35.5 µM [activator, single point].

**Q.** `Cc1cccc(NC(=O)Cn2c(=O)n(CCCS(=O)(=O)C3CCCCC3)c(=O)c3ccccc32)c1` was tested. Which Potency did it give?
**A.** The Potency was inconclusive: 39.8 µM [activator, single point].

**Q.** `CN(C)CCNC(=O)Cn1c(=O)c2cccn2c2ccc(F)cc21` was tested. Which Potency did it give?
**A.** Its Potency is inconclusive: 31.6 µM [activator, single point].

**Q.** Which Potency does the source give for `Cn1c(=O)c2c(ncn2CCCC(=N)N2CCOCC2)n(C)c1=O` here?
**A.** The Potency was inconclusive: 14.1 µM [activator, partial curve].

**Q.** `COc1cccc(N2CCN(C(=O)CCCCCn3c(=S)[nH]c4cc5c(cc4c3=O)OCO5)CC2)c1` was tested. Which Potency did it give?
**A.** Its Potency is inconclusive: 35.5 µM [activator, single point].

**Q.** With `CN(C)c1cccc2c1c(NC(=O)c1ccc(Cl)cc1)nn2C` as the compound, how does the Potency read?
**A.** The Potency was “inactive”.

**Q.** Which Potency does the source give for `CCOC(=O)c1c(NC(=O)COc2cc(C)ccc2C(C)C)sc(C)c1C` here?
**A.** Its Potency is “inactive”.

**Q.** Which Potency does the source give for `CCOc1ccccc1NC(=O)Cn1c(=O)n(-c2ccc(F)cc2)c(=O)c2sc3ccccc3c21` here?
**A.** The Potency was inconclusive: 22.4 µM [activator, single point].

**Q.** Which Potency does the source give for `CCCCNC(=O)c1nn2c(C(F)(F)F)cc(-c3ccc(OC)cc3)nc2c1Br` here?
**A.** Its Potency is inconclusive: 39.8 µM [activator, single point].

**Q.** How did the Potency turn out when `CCOC(=O)C1=C(c2ccccc2)O/C(=C(/C(=O)OC)C(F)(F)F)S1` was run?
**A.** The Potency was inconclusive: 35.5 µM [activator, single point].

**Q.** How did the Potency turn out when `O=C(CSc1ncnc2c1oc1ccccc12)Nc1nccs1` was run?
**A.** The Potency was inconclusive: 3.98 µM [activator, single point].

**Q.** How did the Potency turn out when `CCc1ccc(NC(=O)Cn2c(=O)n(CCC(C)C)c(=O)c3cccnc32)cc1` was run?
**A.** The Potency was inconclusive: 25.1 µM [activator, single point].

**Q.** For `Nc1c(C(=O)Nc2ccccc2Cl)c2ccccn2c1C(=O)c1ccccc1`, which Potency is on record?
**A.** The Potency was inconclusive: 39.8 µM [activator, single point].

**Q.** With `NN1C(=O)/C(=C2/Sc3ccccc3N2CCCS(=O)(=O)O)SC1=S` as the compound, how does the Potency read?
**A.** The Potency was inconclusive: 17.8 µM [activator, partial curve].

**Q.** For `O=S(=O)(c1cccc(-c2cn3cccnc3n2)c1)N1CCOCC1`, which Potency is on record?
**A.** Its Potency is inconclusive: 15.8 µM [activator, partial curve].

**Q.** Which Potency does the source give for `COc1ccc(/C=C(\NC(=O)c2ccc(C)cc2)C(=O)NCCCn2ccnc2)cc1` here?
**A.** Its Potency is “inactive”.

**Q.** For `O=C(NCCc1ccccc1Cl)C1CCN(c2nc3ccccc3nc2C(F)(F)F)CC1`, which Potency is on record?
**A.** Its Potency is inconclusive: 39.8 µM [activator, single point].

**Q.** With `CC1(C)O[C@H]2[C@@H](O1)[C@@H](C(=O)Nc1ccccc1C(F)(F)F)O[C@@H]1OC(C)(C)O[C@@H]12` as the compound, how does the Potency read?
**A.** The Potency was “inactive”.

**Q.** How did the Potency turn out when `COC(=O)c1cc(-c2ccc3c(c2)OCO3)nc2ccccc12` was run?
**A.** Its Potency is “inactive”.

**Q.** How did the Potency turn out when `O=C1CCCN1CCCNc1ccc2nnc(CCC(=O)N3CCN(c4ccc(F)cc4)CC3)n2n1` was run?
**A.** The Potency was inconclusive: 31.6 µM [activator, partial curve].

**Q.** For `COc1ccc(S(=O)(=O)N2CCN(Cc3ccc(Cl)cc3)CC2)cc1`, which Potency is on record?
**A.** Its Potency is “inactive”.
